Laboratory results reported in paper PMC9633759, “ATP-binding and hydrolysis of human NLRP3” (Communications Biology, 2022).

Target: the molecule itself
Test: SEC; gel filtration of purified MBP-NLRP3 on Superose 6 10/300 GL (increase) in 20 mM HEPES pH 8.0, 150 mM NaCl, 1 mM TCEP; 4 °C stated for the mutants; self-association

B1: human MBP-NLRP3 C838S (natural protein)
chain: not shown
notes: NLRP3, human, […], point mutant C838S; not shown: MBP, N-terminal, kept
binding result: binds

B2: human MBP-NLRP3 T233S (natural protein)
chain: not shown
notes: NLRP3, human, […], point mutant T233S; also called Walker A mutant T233S; not shown: MBP, N-terminal, kept
binding result: binds
